# Results reported in PubChem BioAssay (NCI).
# Where “and” joins values, the source holds several entries; their conditions need not be identical. Identical values can stand only once.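 1) Cells in 96-well plates. 2) Compound, 48 h, 5 concentrations. 3) Linear interpolation between surrounding doses. 4) Unreached endpoint = highest concentration. Here, GI50 denotes the concentration required for 50% inhibition of growth. At the TGI there is no net growth.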 Peptide text beside a SMILES is read from it.
# System: NCI-H322M lung
# Test: growth of human tumour cells (NCI), 48 h
SMILES,TGI,GI50
Nc1cc(N)c(N=Nc2cccc3c(S(=O)(=O)O)cccc23)cc1N=Nc1cc([N+](=O)[O-])ccc1O,> 100 µM,–
O=C1NN=C(c2ccc([N+](=O)[O-])cc2)C1n1nc(-c2ccccc2)c2ccccc2c1=O (stereo not given),> 100 µM,–
COC(=O)CCC(C)[C@H]1CCC2C3C(C[C@H](OC(C)=O)[C@@]21C)[C@@]1(C)CCC2(C[C@H]1C[C@H]3OC(C)=O)OOC1(CCCCC1)OO2 (stereo not given in full),> 100 µM,–
O=C1Cc2ccccc2CCc2ccsc21,> 100 µM,–
Cc1ccc(F)c2c(=O)cc(-c3ccccc3)[nH]c12,> 100 µM,–
CN1CCCC(C(=O)OCC(=O)C2(O)CCC3C4CCC5=CC(=O)CCC5(C)C4C(O)CC32C)C1 (stereo not given),66.2 µM,–
Clc1ccc(/C=C/c2nc(Cl)c(-c3ccc(Cl)cc3)c(Cl)n2)cc1,> 100 µM,–
Cn1nc(C(=O)N2CC(CCl)c3c2cc([N+](=O)[O-])c2ccccc32)cc1NC(=O)Nc1cc(C(=O)N2CC(CCl)c3c2cc([N+](=O)[O-])c2ccccc32)nn1C (stereo not given),> 100 µM,–
COC(=O)C1=NN2c3ccccc3CN([C@@H](C)c3ccccc3)C(=O)[C@H]2[C@@H]1C,> 100 µM,–
Oc1ccccc1-n1nc2ccc3nonc3c2n1,> 100 µM,–
CNc1ncc2cc(Oc3ccc(F)cc3F)c(=O)n(C)c2n1,> 25 µM,> 25 µM
O=C(Nc1ccc(S(=O)(=O)Nc2ncccn2)cc1)c1c2ccccc2nc2ccccc12,> 100 µM,–
Nc1ccc(C2=Nc3ccccc3SC(c3ccccc3O)C2)cc1 (stereo not given),> 100 µM,–
Cc1cc(-c2ccc(C(=O)C(c3ccccc3)(c3ccccc3)c3ccccc3)[nH]2)on1,45 µM,–
C=C1C(=O)O[C@H]2[C@H]1CC/C(CNC(=O)/C=C/c1ccc(Cl)cc1Cl)=C\CC[C@@]1(C)O[C@@H]21,9.3 µM,2.49 µM
CN(C)c1ncnc2c1ccn2C1OC(CO)C(O)C1O (stereo not given),12.4 µM,0.589 µM
O=c1cc(-c2ccc(O)cc2)oc2cc(O)cc(O)c12,> 100 µM,–
Nc1nc(NCCOCP(=O)(O)O)c(N)c(=O)[nH]1,> 100 µM,–
CN(C)C(=O)Oc1ccc(C(=S)Nc2ccccc2)cc1Br,> 100 µM,–
C=CCC1C2CCC(O[Si](C(C)C)(C(C)C)C(C)C)(C(C(=O)OC)C2)C1O (stereo not given),> 100 µM,–
O=C1Nc2ccc(Br)cc2/C1=C/C(=O)c1ccccc1,31.1 µM,–
CCC(=O)c1c(C(F)(F)F)n([O-])c2ccccc2[n+]1=O,17.8 µM,4.25 µM
CC(=O)C1C(=O)C(=O)N(c2ccc(Br)cc2)C1=O (stereo not given),> 100 µM,–
O=C1C=C(OCCCl)C(=O)c2c(O)ccc(O)c21,3.12 µM,–

SMILES,TGI,GI50
O=C(O)CO/N=C1/C(c2c(O)[nH]c3ccccc23)=Nc2ccccc21,> 100 µM,–
CCCC(CCC)C(=O)OCC1(CO)C/C(=C\c2ccc(C(F)(F)F)cc2)C(=O)O1 (stereo not given),27.8 µM,13 µM
COc1ccc2c(c1OC)C(=O)O[C@@H]2[C@H]1c2c(c(Br)c3c(c2OC)OCO3)CCN1C,> 100 µM,16.9 µM
CC/C=C/C(/C=C/C[C@]1(CC)C[C@H](CC)[C@H](CC(=O)O)OO1)CC (stereo not given in full),15.7 µM,–
COc1ccc(N2C(=O)C3c4[nH]c5ccc(OCc6ccccc6)cc5c4C4CCC(C(C)C)CC4C3C2=O)cc1 (stereo not given),> 100 µM,–
Cc1ccccc1NC(=O)c1cc2ccccc2cc1O,> 100 µM,3.25 µM
COc1ccc(CN=C(N)N=C(N)N)cc1OC,> 1000 µM,369 µM
COC(=O)C1(C)OC(C)=NC1(C(=O)OC)C(=O)OC (stereo not given),> 100 µM,–
CN(C)Cc1[nH]c2ccccc2c1C(=O)c1ccccc1,> 100 µM,–
O=c1[nH]cnc2c1ncn2CCCCO,> 100 µM,–
COc1cc2c3cc1Oc1c(OC)c(OC)cc4c1C(Cc1ccc(cc1)Oc1cc(ccc1O)CC3N(C)CC2)N(C)CC4 (stereo not given),56.4 µM and 27.2 µM,–
NNC(=S)N/N=C(/C(=O)Nc1ccc([N+](=O)[O-])cc1)c1nc2ccc([N+](=O)[O-])cc2[nH]c1=O,> 100 µM,–
c1ccc(/C(=N\Nc2ccc3ccccc3n2)c2ccccn2)cc1,5.4 µM,0.292 µM
COc1cc(-c2oc3c(OC)c(O)cc(O)c3c(=O)c2OC)ccc1O,> 100 µM,–
CCCOP(=S)(N1CC1)N1CC1,> 100 µM,–
CC/C(=C\c1ccc(Cl)c(Cl)c1)[N+](=O)[O-],28.8 µM,–
CNC(=O)c1cncc(/C=C/c2c(Cl)cccc2Cl)c1,> 25 µM,> 25 µM
CCN1C(=O)CS/C1=N\NC(=O)CSc1nc2ccccc2c(=O)n1CC,> 100 µM,–
CC1(C)N=C(Oc2ccccc2)n2nccc2N1,> 100 µM,–
CCCc1cc(-c2ccc(-c3cc(CCC)c(C=O)[nH]3)s2)[nH]c1C=O,> 100 µM,–
CC1CC(=O)c2c(ccc3c2C(=O)c2cccc(O)c2C3=O)C1 (stereo not given),51.5 µM,–
Cc1cn(Cc2ccccc2CCl)c(=O)n(Cc2ccccc2CCl)c1=O,5.7 µM,2.43 µM
Cc1ccc(Nc2cn(COCc3ccccc3)c(=O)[nH]c2=O)cc1,> 100 µM,–
CC(C)(C)N=c1n(C(C)(C)C)oc(=O)n1-c1ccccc1,> 50 µM,–

SMILES,TGI,GI50
CC1=C(C)C(=O)C(C2=C(C3=CC(=O)C(C)=C(C)C3=O)C(=O)c3ccccc3C2=O)=CC1=O,21.5 µM,–
Cc1cc(C)nc(NS(=O)(=O)c2ccc(NC(=O)c3cccc4c(N)c5ccccc5nc34)cc2)n1,> 100 µM,–
COc1ccc(C2C(Cl)C(=O)N2NC(=O)c2ccccc2O)cc1OC (stereo not given),> 100 µM,–
Cc1cc(Cl)ccc1NC(=O)C(=O)Cc1occc(=O)c1O,> 100 µM,–
C=C(C)C(=O)O[C@H]1CC2=CC(CC(C)=C[C@H]3OC(=O)C(=C)C13)OC2=O (stereo not given in full),> 100 µM,–
CC1=C(C(=O)Nc2ccccc2C)C(c2ccccc2C)C(C(=O)Nc2ccccc2C)=C(C)N1,> 100 µM,–
Cc1ccc([N+](=O)[O-])c2c(NCCC[N+](C)(C)[O-])ccnc12,> 100 µM,–
CC(=O)NC(CO)C(=O)NC(Cc1ccc(O)cc1)C(=O)NCC(N)=O (stereo not drawn) (Ac-Ser-Tyr-Gly-NH2; configuration not given here),> 100 µM,–
COc1cc(C2S/C(=C/c3ccccc3)C(=O)N2c2ccccc2Cl)cc(OC)c1OC (stereo not given),66.8 µM,–
COc1cc2c(cc1OCCCCCn1c3ccccc3c3ccccc31)N=C[C@@H]1CCCN1C2=O,16.3 µM,3.83 µM
COC(=O)C1=C(O)C(C(=O)OC)[C@@]2(O)[C@@H](C(=O)OC)CC[C@@H]1[C@@H]2C(=O)OC (stereo not given in full),> 100 µM,–
Nc1cc(-c2ccccc2)n(C(=O)Nc2ccc(Oc3ccccc3)cc2)n1,> 100 µM,> 100 µM
Cc1ccc(N2C(=O)C(=O)N(/N=C3\C(=O)Nc4ccccc43)C2=S)cc1,> 100 µM,–
Cc1nc2nn(C)cc2c(=O)n1/N=C/c1ccccc1,> 100 µM,–
COc1ccccc1N1C(=O)CC(=O)N(C(=O)CCCCCCCCC(=O)N2C(=O)CC(=O)N(c3ccccc3OC)C2=S)C1=S,> 100 µM,–
O=[N+]([O-])c1ccc2[nH]c(O)c(N=NC(=S)Nc3ccccc3)c2c1,23.7 µM,–
NCCC1([N+](=O)[O-])CCNCC1,> 100 µM,–
O=C(NN1C(=O)CSC12CCC(c1ccccc1)CC2)c1[nH]c2ccc(F)cc2c1-c1ccccc1 (stereo not given),34.7 µM,18.1 µM
COC(=O)C1C(/C=C/c2ccoc2)ON2CCC[C@@H]12 (stereo not given in full),> 100 µM,–
CC1(C)CC2(C)ON=C(c3ccccc3)N2c2ccccc2N1 (stereo not given),> 100 µM,–
COc1cc(NC(=O)c2cc(O)c(C/C=C(\C)CCC=C(C)C)c(O)c2)cc2c1O[C@]1(C)CC[C@@H](O)C(C)(C)[C@H]1C2,14.8 µM,3.18 µM
CC1=NN(c2ccccc2)C(=O)C1N=Nc1ccc(S(N)(=O)=O)cc1 (stereo not given),> 100 µM,–
COC(=O)Nc1nc2ccc(S(=O)(=O)c3ccc(NC(=O)Nc4cc(C(F)(F)F)ccc4F)cc3)cc2[nH]1,> 25 µM,> 25 µM
Oc1ccc(O)c2c1C1(Cl)C(Cl)=C(Cl)C2(Cl)C1(Cl)Cl,13.3 µM,3.63 µM

SMILES,TGI,GI50
Cc1ccccc1NC(=O)CSc1nnc(Cc2ccccc2)o1,> 100 µM,–
O=C1c2ccn(CCCCN(CCO)CCO)c2C(=O)c2c1c(O)c1ccccc1c2O,23.8 µM,6.84 µM
CC(C)=CCc1cc(C2COc3cc4c(c(O)c3C2=O)C=CC(C)(C)O4)c(O)cc1O (stereo not given),30.9 µM,–
Cc1nc(Nc2nc3ccccc3[nH]2)[nH]c(=O)c1CCO,> 100 µM,–
c1ccc(CSC(SCc2ccccc2)c2ccc3c(c2)OCO3)cc1,> 10 µM,–
O=C1/C(=C\c2ccccc2)c2ccccc2N1/N=C\c1ccccc1,> 100 µM,–
Nc1nc(Cl)nc2c1ncn2[C@@H]1O[C@H](COS(N)(=O)=O)[C@@H](O)[C@H]1O,0.0608 µM and 0.0595 µM,0.0126 µM and 0.0168 µM
O=C1/C(=C/c2ccc(Cl)cc2)Sc2scc(-c3cccc([N+](=O)[O-])c3)[n+]21,30.9 µM,–
NCCSC(C[N+](=O)[O-])c1ccccc1Cl (stereo not given),32.1 µM,16.5 µM
COc1cc2c(cc1OCCCCN1CCN(CCCCOc3cc4c(cc3OC)C(=O)N3CCC[C@H]3C=N4)CC1)N=C[C@@H]1CCCN1C2=O,0.746 µM,–
CCOP(=O)(OCC)C(=C1C=C(C(C)(C)C)C(=O)C(C(C)(C)C)=C1)P(=O)(OCC)OCC,> 10 µM,–
CC[C@H](C)[C@H]1NC(=O)[C@@H](NC(=O)[C@@H](CC(C)C)N(C)C(=O)C2CCCN2C(=O)[C@H](C)O)[C@@H](C)OC(=O)[C@H](Cc2ccccc2)N(C)C(=O)[C@@H]2CCCN2C(=O)[C@H](CC(C)C)NC(=O)[C@@H](C)C(=O)[C@H](C(C)C)OC(=O)C[C@@H]1O (stereo not given in full),0.0481 µM,–
O=C1NC(c2ccccc2)N=C2Oc3ccccc3C=C12 (stereo not given),> 47 µM,–
CCCCCCC(=O)OC[n+]1cccc(-c2c(COC(=O)NC(C)C)c(COC(=O)NC(C)C)c3n2CCC3)c1,> 100 µM,–
COc1ccccc1Cn1[nH]c(=O)c2cc([N+](=O)[O-])ccc21,> 100 µM,–
Cc1ccc(-n2cc(-c3ccc(Cl)cc3)c3c2N=CN2NC(c4cccs4)=NC32)cc1 (stereo not given),> 100 µM,–
CN(C)CC1=Nc2cccc3cccc(c23)N1,> 100 µM,–
CCCCCCCCCCCCCCCCCc1nnc(N)o1,> 100 µM,–
CC(=O)/C(=C(/Br)I)c1ccccc1,29.1 µM,–
Cc1ccc(-c2c3c(N)c4c(nc3nc3c2c(C)nn3-c2ccccc2)CCC4)cc1,11.2 µM,3.35 µM
O=C(O)C1CC2CC(=O)C1C2 (stereo not given),> 100 µM,–
CCSC(=O)C1(C)OC2CCCCC2C1=O (stereo not given),> 100 µM,–
